# Some of the results follow.
# B1: AMA (Arum maculatun) (protein)
# chain: MAKLLLLLLLPAIVGLAVPRSAAAVGSNYMLSGETLNTDGRLTNGELTLIMQVDCNLVLYHGGWQSNTANNGRDCKLTLTDFGELVIKSGTGSTVWSSGSKQSMKGNYAAVVHPEGRLVIYGPSVFKINPSGAGLNGLPLRNIPLTNNMLFSGQVLYGDGTLSARNHKLVMQGDCNMVLYGGKYGWQSNTHGNGKYCFAMLTHKGELVIRDDDFKSVWSSKSSSKQGDYVFILQDDSLAIIYGPAVFSTGSKKMISMVTN
# Experiments:
# Assay in all cases: glycan array binding signal (z-score within array); higher = stronger binding
# Settings in all cases: glycan notation: IUPAC condensed, linker removed
# [1] = target: GlcNAc(a1-3)Gal(b1-4)GlcNAc
# In short: (§1)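 Glycan array data came from 3228 arrays in the Consortium for Functional Glycomics database, and only arrays with an available protein sequence were kept. Glycan names were put into IUPAC-condensed notation, and columns mapping to the same glycan were averaged. The binding signal is a within-array Z-score, averaged across arrays of one protein sequence run at different concentrations or buffers and across linkers. A negative Z-score can be read as non-binding.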
# [2] = target: GlcNAc(a1-4)Gal(b1-3)GlcNAc
# In short: as §1
# [3] = target: GlcNAc(a1-4)Gal(b1-4)GalNAc
# In short: as §1
# [4] = target: GlcNAc(a1-4)Gal(b1-4)GlcNAc
# In short: as §1
# [5] = target: GlcNAc(a1-4)Gal(b1-4)GlcNAc(b1-3)Gal(b1-4)Glc
# In short: as §1
# [6] = target: GlcNAc(a1-4)Gal(b1-4)GlcNAc(b1-3)Gal(b1-4)GlcNAc
# In short: as §1
# [7] = target: GlcNAc(a1-4)Gal(b1-4)GlcNAc(b1-3)Gal(b1-4)GlcNAc(b1-3)Gal(b1-4)GlcNAc
# In short: as §1
# [8] = target: GlcNAc(a1-4)Gal(b1-4)GlcNAc(b1-3)Gal(b1-4)[Fuc(a1-3)]GlcNAc(b1-3)Gal(b1-4)[Fuc(a1-3)]GlcNAc
# In short: as §1
# [9] = target: GlcNAc(a1-6)Gal(b1-4)GlcNAc
# In short: as §1
# [10] = target: GlcNAc(b1-2)Gal(b1-3)GalNAc
# In short: as §1
# [11] = target: GlcNAc(b1-2)Man(a1-3)[GlcNAc(b1-2)Man(a1-6)]Man(b1-4)GlcNAc(b1-4)GlcNAc
# In short: as §1
# [12] = target: GlcNAc(b1-2)Man(a1-3)[GlcNAc(b1-2)Man(a1-6)]Man(b1-4)GlcNAc(b1-4)[Fuc(a1-6)]GlcNAc
# In short: as §1
# [13] = target: GlcNAc(b1-2)Man(a1-3)[GlcNAc(b1-4)][GlcNAc(b1-2)Man(a1-6)]Man(b1-4)GlcNAc(b1-4)GlcNAc
# In short: as §1
# [14] = target: GlcNAc(b1-2)Man(a1-3)[GlcNAc(b1-4)][GlcNAc(b1-2)Man(a1-6)]Man(b1-4)GlcNAc(b1-4)[Fuc(a1-6)]GlcNAc
# In short: as §1
# [15] = target: GlcNAc(b1-2)[GlcNAc(b1-4)]Man(a1-3)[GlcNAc(b1-2)Man(a1-6)]Man(b1-4)GlcNAc(b1-4)GlcNAc
# In short: as §1
# [16] = target: GlcNAc(b1-2)[GlcNAc(b1-4)]Man(a1-3)[GlcNAc(b1-4)][GlcNAc(b1-2)Man(a1-6)]Man(b1-4)GlcNAc(b1-4)GlcNAc
# In short: as §1
# [17] = target: GlcNAc(b1-2)[GlcNAc(b1-4)]Man(a1-3)[GlcNAc(b1-4)][GlcNAc(b1-2)[GlcNAc(b1-6)]Man(a1-6)]Man(b1-4)GlcNAc(b1-4)GlcNAc
# In short: as §1
# [18] = target: GlcNAc(b1-2)[GlcNAc(b1-4)]Man(a1-3)[GlcNAc(b1-4)][GlcNAc(b1-2)[GlcNAc(b1-6)]Man(a1-6)]Man(b1-4)GlcNAc(b1-4)[Fuc(a1-6)]GlcNAc
# In short: as §1
# [19] = target: GlcNAc(b1-2)[GlcNAc(b1-6)]Man(a1-6)[GlcNAc(b1-2)Man(a1-3)]Man(b1-4)GlcNAc(b1-4)GlcNAc
# In short: as §1
# [20] = target: GlcNAc(b1-2)[GlcNAc(b1-6)]Man(a1-6)[GlcNAc(b1-2)Man(a1-3)]Man(b1-4)GlcNAc(b1-4)[Fuc(a1-6)]GlcNAc
# In short: as §1
# [21] = target: GlcNAc(b1-2)[GlcNAc(b1-6)]Man(a1-6)[GlcNAc(b1-4)][GlcNAc(b1-2)Man(a1-3)]Man(b1-4)GlcNAc(b1-4)GlcNAc
# In short: as §1
# GlcNAc(b1-3)Fuc = target: GlcNAc(b1-3)Fuc
# In short: as §1
# GlcNAc(b1-3)Gal = target: GlcNAc(b1-3)Gal
# In short: as §1
# [22] = target: GlcNAc(b1-3)Gal(b1-3)GalNAc
# In short: as §1
# GlcNAc(b1-3)Gal(b1-4)Glc = target: GlcNAc(b1-3)Gal(b1-4)Glc
# In short: as §1
# [23] = target: GlcNAc(b1-3)Gal(b1-4)GlcNAc
# In short: as §1
# [24] = target: GlcNAc(b1-3)Gal(b1-4)GlcNAc(b1-2)Man(a1-3)[GlcNAc(b1-3)Gal(b1-4)GlcNAc(b1-2)Man(a1-6)]Man(b1-4)GlcNAc(b1-4)GlcNAc
# In short: as §1
# [25] = target: GlcNAc(b1-3)Gal(b1-4)GlcNAc(b1-2)Man(a1-3)[GlcNAc(b1-3)Gal(b1-4)GlcNAc(b1-2)Man(a1-6)]Man(b1-4)GlcNAc(b1-4)[Fuc(a1-6)]GlcNAc
# In short: as §1
# [26] = target: GlcNAc(b1-3)Gal(b1-4)GlcNAc(b1-2)[GlcNAc(b1-3)Gal(b1-4)GlcNAc(b1-6)]Man(a1-6)[GlcNAc(b1-3)Gal(b1-4)GlcNAc(b1-2)Man(a1-3)]Man(b1-4)GlcNAc(b1-4)GlcNAc
# In short: as §1
# [27] = target: GlcNAc(b1-3)Gal(b1-4)GlcNAc(b1-3)Gal(b1-4)GlcNAc
# In short: as §1
# [28] = target: GlcNAc(b1-3)Gal(b1-4)GlcNAc(b1-3)Gal(b1-4)GlcNAc(b1-2)Man(a1-3)[GlcNAc(b1-3)Gal(b1-4)GlcNAc(b1-3)Gal(b1-4)GlcNAc(b1-2)Man(a1-6)]Man(b1-4)GlcNAc(b1-4)GlcNAc
# In short: as §1
# [29] = target: GlcNAc(b1-3)Gal(b1-4)GlcNAc(b1-3)Gal(b1-4)GlcNAc(b1-2)Man(a1-3)[GlcNAc(b1-3)Gal(b1-4)GlcNAc(b1-3)Gal(b1-4)GlcNAc(b1-2)Man(a1-6)]Man(b1-4)GlcNAc(b1-4)[Fuc(a1-6)]GlcNAc
# In short: as §1
# [30] = target: GlcNAc(b1-3)Gal(b1-4)GlcNAc(b1-3)Gal(b1-4)GlcNAc(b1-2)[GlcNAc(b1-3)Gal(b1-4)GlcNAc(b1-3)Gal(b1-4)GlcNAc(b1-6)]Man(a1-6)[GlcNAc(b1-3)Gal(b1-4)GlcNAc(b1-3)Gal(b1-4)GlcNAc(b1-2)Man(a1-3)]Man(b1-4)GlcNAc(b1-4)[Fuc(a1-6)]GlcNAc
# In short: as §1
# [31] = target: GlcNAc(b1-3)Gal(b1-4)GlcNAc(b1-3)Gal(b1-4)GlcNAc(b1-3)Gal(b1-4)GlcNAc(b1-2)Man(a1-3)[GlcNAc(b1-3)Gal(b1-4)GlcNAc(b1-3)Gal(b1-4)GlcNAc(b1-3)Gal(b1-4)GlcNAc(b1-2)Man(a1-6)]Man(b1-4)GlcNAc(b1-4)GlcNAc
# In short: as §1
# [32] = target: GlcNAc(b1-3)Gal(b1-4)GlcNAc(b1-3)Gal(b1-4)GlcNAc(b1-3)Gal(b1-4)GlcNAc(b1-2)Man(a1-3)[GlcNAc(b1-3)Gal(b1-4)GlcNAc(b1-3)Gal(b1-4)GlcNAc(b1-3)Gal(b1-4)GlcNAc(b1-2)Man(a1-6)]Man(b1-4)GlcNAc(b1-4)[Fuc(a1-6)]GlcNAc
# In short: as §1
# [33] = target: GlcNAc(b1-3)Gal(b1-4)GlcNAc(b1-3)Gal(b1-4)GlcNAc(b1-3)Gal(b1-4)GlcNAc(b1-2)[GlcNAc(b1-3)Gal(b1-4)GlcNAc(b1-3)Gal(b1-4)GlcNAc(b1-3)Gal(b1-4)GlcNAc(b1-6)]Man(a1-6)[GlcNAc(b1-3)Gal(b1-4)GlcNAc(b1-3)Gal(b1-4)GlcNAc(b1-3)Gal(b1-4)GlcNAc(b1-2)Man(a1-3)]Man(b1-4)GlcNAc(b1-4)[Fuc(a1-6)]GlcNAc
# In short: as §1
# [34] = target: GlcNAc(b1-3)Gal(b1-4)GlcNAc(b1-3)Gal(b1-4)GlcNAc(b1-3)Gal(b1-4)GlcNAc(b1-3)Gal(b1-4)GlcNAc(b1-2)Man(a1-3)[GlcNAc(b1-3)Gal(b1-4)GlcNAc(b1-3)Gal(b1-4)GlcNAc(b1-3)Gal(b1-4)GlcNAc(b1-3)Gal(b1-4)GlcNAc(b1-2)Man(a1-6)]Man(b1-4)GlcNAc(b1-4)GlcNAc
# In short: as §1
binder,measurement,setting,value
B1,glycan array binding signal (z-score),[1],-0.207
same,glycan array binding signal (z-score),[2],-0.2
same,glycan array binding signal (z-score),[3],-0.204
same,glycan array binding signal (z-score),[4],-0.211
same,glycan array binding signal (z-score),[5],-0.213
same,glycan array binding signal (z-score),[6],-0.205
same,glycan array binding signal (z-score),[7],-0.206
same,glycan array binding signal (z-score),[8],-0.201
same,glycan array binding signal (z-score),[9],-0.195
same,glycan array binding signal (z-score),[10],-0.217
same,glycan array binding signal (z-score),[11],6.01
same,glycan array binding signal (z-score),[12],-0.113
same,glycan array binding signal (z-score),[13],-0.23
same,glycan array binding signal (z-score),[14],-0.206
same,glycan array binding signal (z-score),[15],7.69
same,glycan array binding signal (z-score),[16],-0.212
same,glycan array binding signal (z-score),[17],-0.209
same,glycan array binding signal (z-score),[18],-0.218
same,glycan array binding signal (z-score),[19],-0.215
same,glycan array binding signal (z-score),[20],-0.214
same,glycan array binding signal (z-score),[21],-0.215
same,glycan array binding signal (z-score),GlcNAc(b1-3)Fuc,-0.209
same,glycan array binding signal (z-score),GlcNAc(b1-3)Gal,-0.211
same,glycan array binding signal (z-score),[22],-0.212
same,glycan array binding signal (z-score),GlcNAc(b1-3)Gal(b1-4)Glc,-0.218
same,glycan array binding signal (z-score),[23],-0.217
same,glycan array binding signal (z-score),[24],1.1
same,glycan array binding signal (z-score),[25],2.21
same,glycan array binding signal (z-score),[26],-0.18
same,glycan array binding signal (z-score),[27],-0.21
same,glycan array binding signal (z-score),[28],0.277
same,glycan array binding signal (z-score),[29],1.22
same,glycan array binding signal (z-score),[30],0.003
same,glycan array binding signal (z-score),[31],0.307
same,glycan array binding signal (z-score),[32],0.769
same,glycan array binding signal (z-score),[33],0.035
same,glycan array binding signal (z-score),[34],0.215

# — the supplement of paper PMC8728848
